{"source": "patent US6063815A", "about": "“Benzopenones useful in the treatment of insulin resistance and hyperglycemia” (American Home Products Corporation, priority 1999, dated 2000)"}
{"biological_target": "T1, recombinant, human protein tyrosine phosphatase (PTP) 1B (hPTP1B) (Homo sapiens, UniProt P18031)", "T1 sequence (P18031 1-435)": "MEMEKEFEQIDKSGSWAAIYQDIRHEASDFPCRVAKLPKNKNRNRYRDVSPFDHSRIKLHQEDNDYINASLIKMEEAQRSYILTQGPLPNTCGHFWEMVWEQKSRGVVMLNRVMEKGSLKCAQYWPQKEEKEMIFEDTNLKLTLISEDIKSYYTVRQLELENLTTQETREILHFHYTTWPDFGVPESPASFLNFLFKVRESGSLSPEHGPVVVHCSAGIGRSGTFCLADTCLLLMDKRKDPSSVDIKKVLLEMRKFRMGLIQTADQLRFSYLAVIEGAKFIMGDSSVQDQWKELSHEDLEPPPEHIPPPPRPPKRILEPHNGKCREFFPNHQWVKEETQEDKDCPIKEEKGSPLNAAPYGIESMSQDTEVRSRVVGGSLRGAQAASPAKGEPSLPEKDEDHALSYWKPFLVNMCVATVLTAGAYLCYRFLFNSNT", "units": {"IC50": "nM", "inhibition at 2.5 µM": "%", "inhibition at 1 µM": "%"}}
{"compound": "O=C(c1ccccc1)c1cc(-c2ccccc2)c(OCc2ccc(C(=O)O)c(O)c2)c(-c2ccccc2)c1", "note": "[Example 2, 4-(5'-Benzoyl-[1,1';3',1\"]terphenyl-2'-yloxymethyl)-2-hydroxy-benzoic acid]", "IC50": 1260}
{"compound": "COC(=O)c1cc(COc2c(I)cc(C(=O)c3ccccc3)cc2I)ccc1OC(C)=O", "note": "[Example 3, 2-Acetoxy-5-(4-benzoyl-2,6-diiodo-phenoxymethyl)-benzoic acid methyl ester]", "inhibition at 2.5 µM": 34.9}
{"compound": "O=C(c1ccccc1)c1cc(-c2ccccc2)c(OS(=O)(=O)c2ccc(C(=O)O)c(O)c2)c(-c2ccccc2)c1", "note": "[Example 4, 4-(5'-Benzoyl-[1,1';3',1\"]terphenyl-2'-yloxysulfonyl)-2-hydroxy-benzoic acid]", "IC50": 354}
{"compound": "CCOC(=O)c1ccc(S(=O)(=O)Oc2c(-c3ccccc3)cc(C(=O)c3ccccc3)cc2-c2ccccc2)cc1O", "note": "[Example 5, 4-(5'-Benzoyl-[1,1';3',1\"]terphenyl-2'-yloxysulfonyl)-2-hydroxy-benzoic acid ethyl ester]", "inhibition at 2.5 µM": 65.5}
{"compound": "COc1ccc(C(=O)c2ccc(OS(=O)(=O)c3ccc(C(=O)O)c(O)c3)cc2)cc1", "note": "[Example 6, 2-Hydroxy-4-[4-(4-methoxy-benzoyl)-phenoxysulfonyl]-benzoic acid]", "inhibition at 2.5 µM": 26.9}
{"compound": "COc1ccc(C(=O)c2cc(I)c(OS(=O)(=O)c3ccc(C(=O)O)c(O)c3)c(I)c2)cc1", "note": "[Example 7, 4-[2,6-Diiodo-4-(4-methoxy-benzoyl)-phenoxysulfonyl]-2-hydroxy-benzoic acid]", "IC50": 409}
{"compound": "COc1ccc(C(=O)c2cc(-c3ccccc3)c(OS(=O)(=O)c3ccc(C(=O)O)c(O)c3)c(-c3ccccc3)c2)cc1", "note": "[Example 8, 2-Hydroxy-4-[5'-(4-methoxy-benzoyl)-[1,1';3',1\"]terphenyl-2'-yloxysulfonyl)-benzoic acid]", "IC50": 1120}
{"compound": "O=C(c1ccccc1)c1cc(-c2ccsc2)c(OS(=O)(=O)c2ccc(C(=O)O)c(O)c2)c(-c2ccsc2)c1", "note": "[Example 9, 4-(4-Benzoyl-2,6-di-thiophen-3-yl-phenoxysulfonyl)-2-hydroxy-benzoic acid]", "IC50": 987}
{"compound": "O=C(O)c1ccc(S(=O)(=O)Oc2c(-c3ccccc3)cc(C(=O)c3ccccc3)cc2-c2ccccc2)cc1", "note": "[Example 10, 4-(5'-Benzoyl-[1,1';3',1\"]terphenyl-2'-yloxysulfonyl)-benzoic acid]", "inhibition at 2.5 µM": 34.4}
{"compound": "O=C(O)c1ccc(S(=O)(=O)Oc2ccc(C(=O)c3ccccc3Cl)cc2-c2ccccc2)cc1O", "note": "[Example 11, 4-[5-(2-Chloro-benzoyl)-biphenyl-2-yloxysulfonyl]-2-hydroxy-benzoic acid]", "inhibition at 1 µM": 42.8}
{"compound": "O=C(c1ccccc1)c1cc(I)c(OS(=O)(=O)c2ccc(C(=O)O)c(O)c2)c(I)c1", "note": "[Example 12, 4-(4-Benzoyl-2,6-diiodo-phenoxysulfonyl)-2-hydroxy-benzoic acid]", "inhibition at 2.5 µM": 64.2}
